In article PMC4336329 (PLoS ONE, 2015):
The campaign covered roughly 310,000 compounds. About 2,200 (0.71%) showed an effect of 50% or more. The effect is printed as a negative number. The list shows a part of the results.

Target: human ether-à-go-go-related gene (hERG) potassium channel (human, UniProt Q12809)
Experiment: primary screen, population patch clamp on CHO cells stably expressing hERG

Chain of human ether-à-go-go-related gene (hERG) potassium channel (Q12809 whole entry, looked up): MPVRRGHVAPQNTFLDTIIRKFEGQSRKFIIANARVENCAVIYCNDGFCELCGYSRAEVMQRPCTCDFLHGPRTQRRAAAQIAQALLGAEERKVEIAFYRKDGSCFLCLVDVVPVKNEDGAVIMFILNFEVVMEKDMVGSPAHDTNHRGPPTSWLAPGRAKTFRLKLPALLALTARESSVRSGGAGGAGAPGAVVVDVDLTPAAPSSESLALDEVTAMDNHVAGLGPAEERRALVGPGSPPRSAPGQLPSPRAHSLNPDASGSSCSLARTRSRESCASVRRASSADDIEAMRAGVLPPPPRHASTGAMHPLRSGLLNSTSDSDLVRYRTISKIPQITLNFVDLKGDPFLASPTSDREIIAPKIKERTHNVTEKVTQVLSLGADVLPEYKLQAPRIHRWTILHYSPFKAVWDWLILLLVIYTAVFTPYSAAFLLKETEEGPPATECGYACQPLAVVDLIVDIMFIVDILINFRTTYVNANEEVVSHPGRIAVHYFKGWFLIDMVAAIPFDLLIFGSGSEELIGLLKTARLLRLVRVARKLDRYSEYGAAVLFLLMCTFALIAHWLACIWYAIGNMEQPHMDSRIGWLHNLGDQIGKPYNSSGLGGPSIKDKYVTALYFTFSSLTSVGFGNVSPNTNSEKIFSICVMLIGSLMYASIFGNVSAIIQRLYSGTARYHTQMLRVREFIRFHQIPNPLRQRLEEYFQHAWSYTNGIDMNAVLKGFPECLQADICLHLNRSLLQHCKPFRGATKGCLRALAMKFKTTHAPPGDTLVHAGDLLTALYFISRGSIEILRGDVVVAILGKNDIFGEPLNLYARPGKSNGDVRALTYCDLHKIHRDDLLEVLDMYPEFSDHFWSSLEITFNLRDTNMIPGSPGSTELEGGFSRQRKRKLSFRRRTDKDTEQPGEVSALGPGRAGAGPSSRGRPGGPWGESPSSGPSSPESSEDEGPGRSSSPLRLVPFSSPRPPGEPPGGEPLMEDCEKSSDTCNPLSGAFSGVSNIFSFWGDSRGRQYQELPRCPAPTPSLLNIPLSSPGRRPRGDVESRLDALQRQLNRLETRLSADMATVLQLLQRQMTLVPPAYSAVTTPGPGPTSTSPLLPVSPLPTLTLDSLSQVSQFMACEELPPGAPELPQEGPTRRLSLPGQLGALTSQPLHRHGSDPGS

Row | SMILES | hERG current change (%, negative = inhibition) at 1uM [%]
1 | CCc1nc2oc3ccccc3c(=O)c2c(=O)n1-c1ccc(C)cc1 | 11.9
2 | CC(C)NS(=O)(=O)c1ccc(NCCCn2ccnc2)c([N+](=O)[O-])c1 | 13.7
3 | CCOc1cc(C(=O)OCC(=O)c2cc(C)n(CC3CCCO3)c2C)ccc1OCC(=O)N1CCOCC1 (centres unmarked) | 6.77
4 | CC(Oc1ccc(S(=O)(=O)N2CCCC2)cc1[N+](=O)[O-])C(=O)NC1(C#N)CCCCC1 (centres unmarked) | 1.24
5 | CO/N=C/CC(=O)Nc1ccc(F)cc1F | 12
6 | C=CCc1cccc2cc(C(=O)Nc3ccc(S(=O)(=O)Nc4nnc(CC)s4)cc3)c(=O)oc12 | 1.95
7 | O=Cc1c(Nc2cccc(C(F)(F)F)c2)nc2ccccn2c1=O | 10.8
8 | O=C(OCC(=O)N1CCCc2ccccc21)c1cccc(S(=O)(=O)N2CCOCC2)c1 | 10.6
9 | CC(C)c1ccc(/C=N/NC(=O)CC(=O)NC2CCCCC2)cc1 | 10.2
10 | CCCCCC1CC(=O)C=C(C)C1C(=O)OC (centres unmarked) | 11.4
11 | O=C(CN(c1ccc(Cl)cc1)S(=O)(=O)c1ccccc1)N/N=C/c1ccco1 | 3.97
12 | O=C1c2ccc(Oc3ccc4c(c3)C(=O)N(CCCCO)C4=O)cc2C(=O)N1CCCCO | 9.02
13 | O=[N+]([O-])c1ccccc1S(=O)(=O)N(CC1CO1)c1ccccc1 (centres unmarked) | 15.9
14 | COc1ccccc1CNC(=S)NCCc1ccccc1 | 8.63
15 | O=C(Nc1ccccc1)Nc1nccs1 | -4.78
16 | CCCn1c(SCC(=O)Nc2nnc(C)s2)nnc1-c1ccoc1C | 6.16
17 | CC(O)CNc1ccc(-c2nn(C)c(=O)c3ccccc23)cc1[N+](=O)[O-] (centres unmarked) | 5.09
18 | O=C(NC1CC2CCCC(C1)N2C(=O)Nc1ccccc1)c1ccccc1 (centres unmarked) | 9.61
19 | CCOC(=O)c1ccc(Nc2nc(C)nc3c2nnn3Cc2ccccc2)cc1 | 13.5
20 | COC(=O)N/N=C(\C)c1ccccc1OC(F)F | 4.38
21 | O=C(O)c1ccc2c(c1)C(=O)/C(=C/c1ccccc1)C2=O | 5.78
22 | COc1ccc(CC(NC(C)=O)C(=O)NC2CCN(C(=O)c3cc(OC)c(OC)c(OC)c3)CC2)cc1 (centres unmarked) | 14.3

Row | SMILES | hERG current change (%, negative = inhibition) at 1uM [%]
23 | Cc1nn(C)cc1CNC(=O)c1ccc(Br)o1 | 4.61
24 | Cc1cc(C(=O)Nc2sc3c(c2C#N)CCCC3)no1 | 10.9
25 | O=C(NCc1ccccc1)C(=O)NCC1OCCN1C(=O)c1ccc(Cl)cc1 (centres unmarked) | 6.18
26 | CS(=O)(=O)c1ccccc1C(=O)NCCC(c1ccccc1)c1ccccc1 | -3.33
27 | Cc1ccc(S(=O)(=O)N2CCOC2CNC(=O)C(=O)NCc2ccccn2)cc1 (centres unmarked) | 11.3
28 | COc1ccc(C2C(C#N)=C(C)NC(C)=C2C(=O)OC(C)C)c(OC)c1 (centres unmarked) | 7.42
29 | CCn1nnnc1SCC(=O)Nc1ccc(F)cc1 | 10.5
30 | CCOC(=O)C(NC(C)=O)C(=O)Nc1c(C)cccc1C (centres unmarked) | 0.521
31 | COc1cccc(NC(=O)C(=O)NCCC2CCCCN2S(=O)(=O)c2cccs2)c1 (centres unmarked) | 9.71
32 | CCOC(=O)c1c(-c2cccc([N+](=O)[O-])c2)csc1NC(=O)C1CCCCC1 | 25
33 | O=C(Nc1ccc(-c2cnco2)cc1)c1ccc(Cl)cc1 | 9.33
34 | Cc1ccc(NC(=O)C2CCCN(S(=O)(=O)c3ccc4[nH]c(=O)ccc4c3)C2)c(C)c1 (centres unmarked) | 4.85
35 | CCC/C(=N\NC(=O)C1CCCC1)c1ccccc1 | 8.85
36 | CCC(C(=O)Nc1ccccc1C(=O)N1CCCC1)N1C(=O)c2ccccc2C1=O (centres unmarked) | -5.5
37 | COc1cccc(NC(=S)N(CCCN2CCCC2)Cc2ccco2)c1 | -9.86
38 | Cl.OCCNc1nc(Nc2cccc(O)c2)nc2ccccc12 | -5.97
39 | CCc1ccccc1NC(=O)CSC1=C(C#N)C(c2ccc3c(c2)OCO3)C2=C(CCCC2=O)N1 (centres unmarked) | 11.7
40 | CC(C)NC(=O)c1noc2cc([N+](=O)[O-])ccc12 | 10.2
41 | O=C(CSc1nnc(-c2ccco2)n1Cc1ccco1)Nc1ccccc1 | -6.32
42 | Cl.O=C1[C@H]2CCCC[C@H]2C(=O)N1CCCCN1CCN(c2nsc3ccccc23)CC1 | -44.9
43 | COc1ccc(-n2nnnc2SCC(=O)NCCc2ccccc2)cc1OC | 10.1
44 | Cc1nn(-c2ccccc2)c2c1C(O)CC(C)(C)C2 (centres unmarked) | 15
